Data taken from the supplement of paper PMC3334620.
Over roughly 33,000 sequences, “E-score (-0.5 to 0.5)” has its median near -0.043; the highest 2% begin near 0.37. The list shows a part of the results.

These sequences were tested against T1, Upc2 (UniProt Q12151) (assay: PBM E-score (8-mer binding enrichment) (E-score (-0.5 to 0.5)); higher = stronger / more preferred TF binding; most listed sequences are background and not binding sites). Settings: protein concentration: 200 nM; construct: GST-full length.
T1 sequence: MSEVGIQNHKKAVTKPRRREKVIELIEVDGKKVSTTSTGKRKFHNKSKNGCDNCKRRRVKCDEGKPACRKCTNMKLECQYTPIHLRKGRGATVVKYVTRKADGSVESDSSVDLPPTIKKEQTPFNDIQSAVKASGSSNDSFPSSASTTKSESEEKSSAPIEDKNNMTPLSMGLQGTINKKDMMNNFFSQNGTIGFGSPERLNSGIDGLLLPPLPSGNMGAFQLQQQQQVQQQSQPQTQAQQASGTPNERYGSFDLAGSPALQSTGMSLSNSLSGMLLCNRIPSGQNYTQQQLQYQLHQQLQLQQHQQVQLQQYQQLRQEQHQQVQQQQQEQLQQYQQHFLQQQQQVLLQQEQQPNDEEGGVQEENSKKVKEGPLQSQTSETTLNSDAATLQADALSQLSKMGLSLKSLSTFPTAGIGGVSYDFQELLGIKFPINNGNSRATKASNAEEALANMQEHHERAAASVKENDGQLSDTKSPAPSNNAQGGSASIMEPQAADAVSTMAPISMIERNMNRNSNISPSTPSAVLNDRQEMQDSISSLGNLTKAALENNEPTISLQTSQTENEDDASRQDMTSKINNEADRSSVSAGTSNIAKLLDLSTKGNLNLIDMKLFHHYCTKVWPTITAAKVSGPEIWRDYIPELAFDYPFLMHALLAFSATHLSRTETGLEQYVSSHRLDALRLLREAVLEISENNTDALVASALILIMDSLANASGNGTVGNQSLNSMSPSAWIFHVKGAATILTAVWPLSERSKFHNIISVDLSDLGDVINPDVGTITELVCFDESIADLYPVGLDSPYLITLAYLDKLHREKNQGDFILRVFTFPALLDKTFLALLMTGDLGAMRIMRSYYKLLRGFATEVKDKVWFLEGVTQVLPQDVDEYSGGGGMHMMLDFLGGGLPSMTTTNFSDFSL
Procedure, shortened: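 Universal all-10-mer Agilent arrays, double-stranded by primer extension on fresh or once-stripped slides, were probed with about 100-200 nM GST-tagged yeast transcription factors made by PURExpress. Fluorescent anti-GST detected bound protein, and masliner normalised the scans. E-scores from the Universal PBM Analysis Suite were given to each ungapped eight-base word pooled with its reverse complement.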

Sequence	PBM E-score
AGGCTCAC	-0.179
CTTCGGAA	0.09
GACCCCCC	-0.143
ATACTTCG	0.0638
AGCATTTC	-0.0182
CACTTAAA	0.0816
CCTCTACA	-0.0822
AAAGTTGA	-0.0343
ATGTTTGG	0.0573
CCAACAAC	-0.0409
AAGCGCCG	-0.115
GATCTTGA	-0.0606
GGACGAAA	-0.0427
AGGCCTTA	0.0592
TATTATCA	-0.0152
CAATGACG	-0.246
ATGTAAGC	0.0905
CCTAAAGA	-0.134
GTAATCGA	0.25
AGTGGCTA	-0.0762
ACGAACAC	0.346
TGGAAACA	-0.0737

Sequence	PBM E-score
GAGATTCA	-0.0814
AAATCCTG	-0.00878
CACCGTAC	0.401
CATGCTTA	-0.192
TCTAATCA	-0.123
GGATTTTA	0.106
CTACGTAG	0.0867
AAGCGTCT	-0.0495
ACAAGCGG	-0.00873
AATAGACC	-0.221
ACCGTAAT	0.0464
GATGTCAC	-0.178
ATGAGAAC	-0.0319
ATCATGAC	-0.0943
ACTATCAA	0.0795
CCAGCCGA	-0.176
CGGAACTC	0.0475
CCCTTGAC	-0.162
CAACTATG	-0.13
CAGGACTA	-0.147
CGATTTCA	-0.0133
CGTTTCCA	0.281

Sequence	PBM E-score
AAGATCTT	0.026
CTTTTTAA	-0.0854
CGGCGTCA	0.0527
CTCTGCAG	-0.274
CTCCGTAA	0.285
CGCGACAG	-0.0839
CGCACAGA	0.0313
CCCATCTC	-0.202
AAGCGGAG	-0.0393
GTAGGAGA	-0.203
AAAGACAG	-0.0254
CCCAGTAG	-0.0846
GGCATAAA	0.0716
ACAGTGAA	-0.15
GACCTGAC	-0.142
AGAGGGCG	-0.0366
GAGGCCCA	0.00365
AGCCCCTA	-0.22
AATGTACC	0.0173
TGAACTAA	0.0265
CTCGAGAG	-0.189
GGATAACC	0.0386

Sequence	PBM E-score
AAGTTATC	0.0259
CCTACTCA	-0.152
CGTTTCCC	0.212
ACGGTGAG	0.162
CATCCTGA	0.0771
CCATGGTA	-0.0316
GAGATCGC	0.0242
ACACGTTG	-0.193
AGAAACGA	0.4
ATGCCCCG	-0.172
ACATCCCC	-0.11
CCCCCAAA	-0.218
TACCGCAA	0.0592
CCTCTGAG	-0.226
ACGTGTCA	-0.111
GCGGTGAC	-0.263
TAAGGCCA	-0.013
CTACGCGC	0.0218
GCGATTGA	-0.0444
ACAGTTCT	-0.027
